# Test results: the supplement of paper PMC4466236
# Whole data set: some 33,000 sequences, median “E-score (dimensionless, -0.5 to 0.5)” near -0.058, cut for the highest 2% near 0.35. The list shows a part of the results.
# System: MvaT
# Test: PBM 8-mer E-score (mean of HK and ME arrays) (E-score (dimensionless, -0.5 to 0.5)); higher = stronger relative binding preference; most listed sequences are background and not binding sites
# Procedure, shortened: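 Full-length P. aeruginosa MvaT carrying an N-terminal glutathione S-transferase tag was tested by protein binding microarray following a previously described protocol. Two universal double-stranded 60-mer arrays, ME and HK, were used, each with a constant 25-mer primer region and a variable 35-mer region covering all 8-mers. The rank-based E-score is the mean of the two arrays, parsed with a custom script. Its range runs from -0.5 to 0.5 for each 8-mer.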
row,Sequence,PBM 8-mer E-score
1,CAAACACA,0.134
2,AGGTCGCC,-0.219
3,AGAGTAGA,-0.0309
4,CGCGACGA,-0.182
5,CAAGCTAG,-0.0234
6,ACCGGTTC,-0.195
7,CATCTAGC,-0.0846
8,ATGAAGCG,-0.026
9,CACGTTCC,-0.11
10,AAACTTAT,0.381
11,AGGCAAGA,-0.05
12,TGGGTCAA,-0.073
13,CTTTATTA,0.402
14,CGACGACG,-0.0581
15,CATCCGCA,-0.214
16,AGATCAGC,-0.183
17,CCATTACC,0.0366
18,CGAAAATA,0.199
19,GAGAGTTA,0.128
20,ATCTCTTC,0.0149
21,ACTCGCGC,-0.0914
22,CGCTGGTA,-0.0275
23,AACCACCT,-0.167
24,AAGCTTGG,-0.0821
25,ACGCCATG,-0.22

row,Sequence,PBM 8-mer E-score
1,ACCCAAGT,-0.0943
2,AACTAGTC,0.0574
3,ATACTGGG,0.00507
4,AACGATCG,-0.162
5,AGGAGGAA,-0.174
6,CAGGAACC,-0.174
7,CTCTTCCC,-0.257
8,AGCGTGAC,-0.158
9,ATATCCAT,0.22
10,AATTGGTC,0.172
11,AGATCTAT,0.147
12,CACGTCAA,-0.104
13,ATTTCCAC,0.19
14,GAAACTTC,0.264
15,ATCCGTCC,-0.175
16,CGGGTACC,-0.269
17,AGTGCTGA,-0.0354
18,ACGGCGGC,-0.104
19,CCCTTACC,-0.214
20,ACGAACCG,-0.179
21,AGCTCTTG,-0.156
22,ATTAAAGG,0.156
23,ACGCTAGG,-0.211
24,CTTTCGTA,-0.0421
25,GACGTACC,-0.151

row,Sequence,PBM 8-mer E-score
1,AGCCTAAT,-0.0118
2,ATATATGA,0.439
3,AACAACGC,0.108
4,CGGTCCAG,-0.21
5,CACCCTTA,-0.023
6,ACGTCAAA,-0.037
7,GTATGATA,0.202
8,GCCAGGCA,-0.204
9,AGCATGTG,-0.075
10,AAGGCGGT,-0.127
11,AGGCTAGG,-0.203
12,TTGCACAA,0.0915
13,CGATCATC,-0.154
14,TACGCGAA,0.109
15,CATGATGA,0.00291
16,GGATCCAA,-0.192
17,CCGCTAAA,0.0528
18,CCCAGCCC,-0.292
19,AAGTATCG,0.194
20,AATAGTTC,0.227
21,ACCGGTGC,-0.3
22,AATAACTC,0.228
23,GGAACGTA,-0.145
24,GCATTGCC,-0.0733
25,CGCGGAAG,-0.105

row,Sequence,PBM 8-mer E-score
1,CCTGGCGA,-0.207
2,AGGGCCCC,-0.312
3,TGAGCGCA,-0.193
4,CGCCCAGA,-0.269
5,ACCGTTTG,-0.00262
6,AGGGGTCC,-0.292
7,TAGCTCAA,-0.134
8,AAAGTTGC,0.218
9,TACCGTCA,-0.0622
10,ATTGTATA,0.324
11,TGGCAACA,-0.122
12,CGGAGGAA,-0.189
13,AGGTCTTG,-0.0961
14,AAGGGGGA,-0.115
15,CCTTAGGA,-0.319
16,TATTTCAA,0.292
17,CAACAGGC,-0.146
18,AATCCAGT,0.0746
19,ATTGCTTG,0.0419
20,GGTAAGGA,-0.186
21,CTCTCAAA,-0.0373
22,AAGCTGGT,-0.136
23,TGAAGCCA,-0.0665
24,ATAACAGC,0.232
25,CCACGTTC,-0.156

row,Sequence,PBM 8-mer E-score
1,AAAACAAT,0.349
2,CGTCCACC,-0.147
3,ATCCTTCA,-0.134
4,GACTTCAC,-0.0427
5,CATTGGGC,-0.202
6,GGCTTAAA,0.204
7,GCGAGCGC,-0.116
8,GCACTCAC,-0.167
9,CAGCCGAG,-0.274
10,CCATTTCC,-0.111
11,AATTAAAT,0.452
12,CACGATAC,-0.0547
13,GCGTTTTA,0.129
14,TCACGCCA,0.00753
15,GTCCAAGA,-0.0983
16,AATAATAA,0.478
17,TATAGGCA,0.169
18,TAGTTGAA,0.236
19,AGACTCCA,-0.0861
20,AAGTACCA,0.1
21,GCGAAGCC,-0.279
22,CCGAAAAG,0.0555
23,AGGGTCCC,-0.204
24,ATCCCTGA,-0.15
25,CAATATCC,0.127

row,Sequence,PBM 8-mer E-score
1,CCGGCTCC,-0.384
2,AGGGCCAC,-0.213
3,AGTGCGGA,0.0614
4,CTGTCTCA,-0.0294
5,AGCTTTGG,-0.312
6,AAACAGAT,0.111
7,ACGTAATG,0.0923
8,GTTCGACA,-0.0253
9,AAAATCGT,0.126
10,AGATCCAT,-0.0762
11,CAGAGCGC,-0.189
12,GTGCCAAC,-0.164
13,GGAGAACC,-0.276
14,AGGCGCGG,-0.243
15,TAAACTTA,0.352
16,CTGTTTCA,-0.122
17,ATGGGAGA,-0.123
18,CTAGATGC,-0.116
19,AGGATTCC,-0.209
20,GGCCGCCA,-0.127
21,CCATCTCC,-0.216
22,AGCTCTTA,0.0954
23,GACTGTGA,-0.0824
24,AGCCCATA,-0.0669
25,ATGTTATA,0.442

row,Sequence,PBM 8-mer E-score
1,ATAGGCAA,0.0817
2,ACTCGCTC,-0.134
3,AGGAACCT,-0.139
4,AGTTTAAG,0.257
5,CTGAGACA,-0.147
6,TTAAGCAA,0.231
7,GATTAGGA,-0.0421
8,CTCAGGAA,-0.116
9,GCGCTCGA,-0.148
10,TAATTCTA,0.278
11,CTCCTGGA,-0.132
12,GCCGGACA,-0.046
13,ACGTCGGG,-0.0915
14,CCGCGTTA,-0.194
15,ATCCAGTG,-0.138
16,CCACTTGC,-0.228
17,ACCCATCT,0.00798
18,CAAGAACA,0.0124
19,ATCTCCGC,-0.113
20,GGTATGTA,0.0752
21,GAGATGGA,-0.187
22,ACGAGGGA,-0.253
23,CGCAAAGC,-0.162
24,CTCCGAAA,-0.00856
25,AAATGAAA,0.28

row,Sequence,PBM 8-mer E-score
1,AGGCTTAA,-0.0836
2,CGTCGGAA,0.0575
3,CGACTCGA,-0.233
4,CAATGAGA,-0.0714
5,ACGGTTAT,0.222
6,AAATTGGA,0.158
7,ACCAGGTA,-0.0271
8,AACGATTG,-0.0259
9,AGGTAGTG,-0.0636
10,CCTTGGAG,-0.213
11,ACCGTCCT,-0.185
12,GAGTGTGA,0.14
13,CGGCCAAC,-0.151
14,ATCCCTAA,-0.0446
15,GCAGCGGC,-0.233
16,AAAGCCGC,-0.157
17,CGGAGGGA,-0.311
18,GAGAAACA,-0.0137
19,CCGTTGCG,-0.127
20,CACACGTA,-0.00571
21,CCATAATA,0.287
22,CCCTGAGG,-0.195
23,CAGTGATC,-0.172
24,AAAAGGTT,0.102
25,ATTCATCC,0.0328

row,Sequence,PBM 8-mer E-score
1,AGATAGTC,-0.0708
2,CGTATTAG,0.0961
3,TCTAGAGA,-0.00944
4,GGCTGAAA,-0.161
5,CTCTCGCC,-0.191
6,AGATCGAA,0.0212
7,GAATTACA,0.175
8,GCGGGAAA,-0.0411
9,ATGTCGGA,-0.0433
10,CCCATCGC,-0.106
11,GTTTCTTA,0.104
12,CGTGACCC,-0.258
13,AGTGGCCG,-0.152
14,TGTGATAA,0.186
15,AAGTGCAA,0.205
16,TCGCCCAA,-0.165
17,ATGAATAC,0.145
18,CAACCGGG,-0.23
19,TGATTCAA,0.0557
